Assay results: PubChem BioAssay AID504339 (National Center for Advancing Translational Sciences (NCATS), 2011)
About 17,000 (4.4%) of roughly 390,000 compounds were called active. The shares of active, inactive and inconclusive entries below differ from those in the screen. Calls follow the shape of the dose curve; as a rule, active = well fitted inhibition curve with a large enough effect; inconclusive = small, poorly fitted or top-dose-only effect; inactive = no such curve, though single readings can be large or run the other way. Potencies of inconclusive entries are doubtful fits and often do not repeat.

These compounds were tested against Lysine-specific demethylase 4A (Homo sapiens) (UniProt O75164) (assay: qHTS Assay for Inhibitors of JMJD2A-Tudor Domain). Conditions: AlphaScreen JMJD2A-Tudor / H3K4me3 peptide binding; series mostly up to 114 µM.
Sequence of UniProt O75164 (O75164 whole entry, looked up, the tested form may be a part): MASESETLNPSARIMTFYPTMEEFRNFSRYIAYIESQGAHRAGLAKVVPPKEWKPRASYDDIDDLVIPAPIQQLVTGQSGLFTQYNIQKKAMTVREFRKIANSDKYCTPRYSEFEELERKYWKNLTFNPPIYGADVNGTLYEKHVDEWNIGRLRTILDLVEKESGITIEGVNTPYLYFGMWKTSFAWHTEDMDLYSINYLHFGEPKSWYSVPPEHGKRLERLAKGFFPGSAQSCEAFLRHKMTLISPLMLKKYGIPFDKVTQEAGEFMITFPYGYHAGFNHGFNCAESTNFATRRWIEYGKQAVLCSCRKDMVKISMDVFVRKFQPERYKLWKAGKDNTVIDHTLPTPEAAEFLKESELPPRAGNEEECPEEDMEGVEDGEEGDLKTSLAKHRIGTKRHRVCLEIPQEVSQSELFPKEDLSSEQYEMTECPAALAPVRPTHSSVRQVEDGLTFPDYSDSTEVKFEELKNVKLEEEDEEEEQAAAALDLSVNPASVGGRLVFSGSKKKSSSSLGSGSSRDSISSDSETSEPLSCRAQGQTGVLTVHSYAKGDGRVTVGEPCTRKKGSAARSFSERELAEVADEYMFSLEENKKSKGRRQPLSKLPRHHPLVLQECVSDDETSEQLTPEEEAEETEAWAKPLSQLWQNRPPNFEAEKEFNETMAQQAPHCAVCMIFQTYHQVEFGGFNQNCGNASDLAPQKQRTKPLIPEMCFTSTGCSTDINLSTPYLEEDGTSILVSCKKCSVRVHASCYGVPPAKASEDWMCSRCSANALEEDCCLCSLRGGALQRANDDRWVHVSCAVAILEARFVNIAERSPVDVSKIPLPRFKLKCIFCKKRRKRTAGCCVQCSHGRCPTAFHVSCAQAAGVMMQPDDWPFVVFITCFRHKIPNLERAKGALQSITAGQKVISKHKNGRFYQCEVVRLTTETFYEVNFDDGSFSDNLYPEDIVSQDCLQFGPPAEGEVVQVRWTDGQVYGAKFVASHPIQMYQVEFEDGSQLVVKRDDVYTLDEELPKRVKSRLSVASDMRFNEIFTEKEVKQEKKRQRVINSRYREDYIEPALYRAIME
Also: nearly all actives have a fitted effect of over 50% in size.
Potency is read from the fitted curve at half-maximal effect; tags tell the direction and shape of the fitted curve.

| SMILES | Potency |
| --- | --- |
| COc1ccccc1N1CCN(/N=C/c2ccc(O)c(O)c2)CC1 | active: 22.4 µM |
| CN/S(=N/S(=O)(=O)c1ccccc1)c1ccc(C)cc1 (centres undefined) | inactive |
| CSc1ccccc1C(=O)Nc1ccccc1C(=O)NC(C)C | inconclusive: 12.6 µM [inhibitor, partial curve, poor fit] |
| CC(=O)c1ccccc1Oc1cc(NN2CCCCC2)c([N+](=O)[O-])cc1[N+](=O)[O-] | inconclusive: 31.6 µM [inhibitor, partial curve] |
| COc1ccc(OC)c(CCNC(=O)c2ccc3c(c2)c(C)c(C)n3Cc2ccccc2)c1 | inconclusive: 12.6 µM [inhibitor, full curve] |
| CCCc1nn2c(=O)cc(COC(=O)c3cccc(NC(=O)c4cccs4)c3)nc2s1 | inactive |
| CC1(C)CC(=O)C(N=Nc2cccnc2)=C(O)C1 | active: 35.5 µM |
| Cc1ccc(/C=C(\C#N)C(=O)NC(C)c2ccccc2)o1 (centres undefined) | inactive |
| COC(=O)c1cc(=O)n(CCc2ccccc2)c(=Nc2ccc(F)cc2)s1 | inconclusive: 63.1 µM [inhibitor, partial curve] |
| Cc1cc(C2=NNC(=Nc3ccc(S(=O)(=O)N4CCOCC4)cc3)SC2)c(C)n1C | inconclusive: 79.4 µM [inhibitor, partial curve] |
| CCN1C(=O)/C(=C2\SC(=S)N(NC(=O)c3ccccc3O)C2=O)c2ccccc21 | active: 1.78 µM |
| N#Cc1nc(-c2ccc(OCc3ccccc3Cl)cc2)oc1N1CCCCCC1 | inconclusive: 3.16 µM [inhibitor, full curve] |
| O=C(NC(=S)Nc1ccc2c(c1)OCCO2)c1ccccc1 | inconclusive: 56.2 µM [inhibitor, partial curve] |
| COc1ccc(C(C)=O)cc1COC(=O)[C@H](Cc1ccccc1)NC(=O)c1ccco1 | inactive |
| CCNC(=O)C(=O)NCC(c1cccs1)S(=O)(=O)c1ccc(C)cc1 (centres undefined) | inactive |
| CCOc1ccccc1CNc1ccc(N2CCOCC2)c(C(=O)O)c1 | inactive |
| O=C(c1cnc2ccccc2n1)N1CCN(c2ccc(C(F)(F)F)cn2)CC1 | inactive |
| COc1cc(NS(=O)(=O)c2ccc(NC(=O)c3cccc(F)c3)cc2)nc(OC)n1 | inactive |
| Clc1ccc(CN2CCN(/N=C/c3ccco3)CC2)cc1 | inconclusive: 56.2 µM [inhibitor, partial curve] |
| Fc1ccc2c(c1)C1C=CCC1C(c1cc3c(cc1Br)OCO3)N2 (centres undefined) | active: 44.7 µM |
| CC1CCN(CCCCOc2cccc(Br)c2)CC1 | active: 1.78 µM |
| Cc1csc(SCC(=O)NC2CCC(C)CC2)n1 (centres undefined) | inactive |
| CCCCn1c(NCCC)nc2c1c(=O)[nH]c(=O)n2C | inactive |
| COc1ccc(C(C(=O)NC2CCCC2)N(CCCO)C(=O)c2snc(C(N)=O)c2N)cc1 (centres undefined) | inconclusive: 1 µM [inhibitor, full curve, poor fit] |
| CNc1cc(NS(=O)(=O)c2ccc(N)cc2)nc(NC)n1 | active: 89.1 µM |

| SMILES | Potency |
| --- | --- |
| Cc1ccc(S(=O)(=O)N2CCN(C)CC2)c(C)c1N(C)S(=O)(=O)c1ccc(Cl)cc1 | inactive |
| CCC(CO)Oc1cc(NCc2ccccc2C(F)(F)F)c2ncn(C(C)C)c2c1 (centres undefined) | active: 44.7 µM |
| O=c1[nH]c(CSc2nnnn2-c2ccc(Cl)cc2)nc2ccccc12 | inactive |
| O=C(O/N=C(/c1ccccc1)c1ccncc1)c1ccccc1[N+](=O)[O-] | inconclusive: 79.4 µM [inhibitor, partial curve] |
| CCC1=Nc2cc(C(=O)NCCN3CCOCC3)ccc2Sc2ccc(Br)cc21 | inconclusive: 44.7 µM [inhibitor, partial curve] |
| CC(NC(=O)c1cccc(S(=O)(=O)N(C)C)c1)C1CC2CCC1C2 (centres undefined) | inactive |
| COC(=O)/C(=N/Nc1ccc(C)cc1)N1CCCc2ccccc21 | inconclusive: 39.8 µM [inhibitor, partial curve] |
| COc1cc(S(=O)(=O)N(Cc2cccnc2)Cc2ccco2)ccc1-n1cnnn1 | active: 28.2 µM |
| COc1ccc(C)cc1Nc1n[n+](-c2ccccc2)c(-c2cc(OC)c(OC)cc2Br)s1 | inconclusive: 63.1 µM [inhibitor, single point] |
| COc1ccc2c(Cl)c(C(=O)NCCCn3ccnc3)sc2c1Cl | inconclusive: 89.1 µM [inhibitor, single point] |
| COc1ccccc1NS(=O)(=O)c1cc(C(=O)NCCN2CCOCC2)ccc1Cl | inconclusive: 100 µM [inhibitor, single point] |
| CCN(CC(=O)Nc1ccc(NC(C)=O)cc1)C(=O)c1ccc(NC2CC2)c([N+](=O)[O-])c1 | inactive |
| O=C(CNCc1ccccn1)Nc1cc(S(=O)(=O)N2CCCCC2)ccc1Cl | active: 79.4 µM |
| Cc1c(F)cccc1NS(=O)(=O)c1cccs1 | inactive |
| COC(=O)C1=C(C)N(C2CCCCC2)C(=O)/C1=C\c1cccs1 | inconclusive: 11.2 µM [inhibitor, full curve] |
| CCOc1ccccc1N1CC(c2nc3ccccc3n2CCCOc2ccccc2)CC1=O (centres undefined) | inactive |
| CC(C)N(Cc1ccccc1)C(=O)c1cc2ccc3cccnc3c2[nH]1 | inconclusive: 56.2 µM [inhibitor, partial curve] |
| CC(C)(C)NC(=O)C[C@H]1C[C@H](C(=O)N2CCOCC2)[C@@]2(CCC3CCCC3)c3[nH]c4cc(-c5ccco5)ccc4c3CCN2C1=O | inconclusive: 50.1 µM [inhibitor, partial curve] |
| COc1cccc(NC(=O)Cn2cnc3sc(C)c(S(=O)(=O)N4CCN(C)CC4)c3c2=O)c1 | inconclusive: 17.8 µM [inhibitor, partial curve] |
| CCOC(=O)C1=NOC(CNC(=O)c2ccccc2Cl)C1 (centres undefined) | inactive |
| COc1ccc(Nc2ncc(C(=O)N3CCN(c4ccc(OC)cc4)CC3)c3ccccc23)cc1 | inconclusive: 17.8 µM [inhibitor, full curve] |
| CN1CCN(CC#CC(C)(O)C2CC3C=CC2C3)CC1 (centres undefined) | active: 50.1 µM |
| Cc1ccc(-n2cc3c(-c4cccc(Br)c4)nnc(C)c3n2)cc1 | inactive |
| COc1cc(NC(=O)c2cccc(Cl)c2)c(OC)cc1NC(=O)CN1CCOCC1 | inconclusive: 56.2 µM [inhibitor, partial curve] |
